# Laboratory results as given in PubChem BioAssay AID1347416 (National Center for Advancing Translational Sciences (NCATS), 2020).
# Values joined by “and” are separate entries in the source; they are usually repeats but may differ in a detail not shown here. Equal values may be shown once. Among all 4,100 compounds or so, about 1,600 (39%) were called active. Inconclusive results, whose numbers are uncertain, are shown with a selection of clear calls. The call rests on the fitted dose curve; in most records, active means well fitted inhibition curve with a large enough effect; inconclusive means small, poorly fitted or top-dose-only effect; inactive means no such curve, though single readings can be large or run the other way. Potencies beside an inconclusive call are fits to weak or partial responses and may not hold up.
# Test: qHTS Validation assay for Inhibitors of Plasmodium falciparum Dd2 growth in vitro; further: nearly all actives have a fitted effect of over 70% in size
# Details: P. falciparum Dd2 in RBCs, SYBR Green growth, 72 h; activity change, negative = inhibition: at 28.7 µM (top of the series) unless noted
# Outline: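 P. falciparum Dd2-infected red blood cells (2.5% hematocrit, 0.3% parasitemia) grown 72 h at 37 °C under 5% O2 with compounds in a titration, 29 uM to 0.5 nM final. Growth read as SYBR Green-1 fluorescence after ~16 h lysis; artesunate 300 nM as positive control.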
# On the % scale 0 is the no-effect control and ±100 the full control effect; potency means the concentration at half of the fitted maximal effect; tags describe the fitted curve by direction and shape.
Compound,Potency,"activity change, negative = inhibition"
COc1cccc(CC(=O)N2CCCN(Cc3ccncc3)C(c3ccccc3)CC(=O)NCC2)c1 (stereo not given),"inconclusive: 21.1 µM [inhibitor, single point]",–
COc1ccc(OC)c(Nc2nc(-c3ccncc3)nc3ccccc23)c1,"inconclusive: 11.9 µM [inhibitor, partial curve, poor fit]",–
Cc1ccc(CN2C(=O)NC3(CCCN(C(=O)c4cc5ccccc5[nH]4)C3)C2=O)cc1 (stereo not given),"inconclusive: 8.41 µM [inhibitor, partial curve, poor fit]",–
Cc1ccc(NC(=O)Cn2cccc2-c2nc(-c3ccccc3)no2)c(C)c1,–,inactive: 17.6%
COc1ccccc1C1c2[nH]c3ccccc3c2C[C@H]2C(=O)N(C3CCN(Cc4ccccc4)CC3)CC(=O)N12 (stereo not given in full),active: 2.11 µM,–
COc1ccc(-c2cc(N3CCCC(NC(=O)c4cccc(C(F)(F)F)c4)C3)n[nH]2)cc1 (stereo not given),"inconclusive: 21.1 µM [inhibitor, single point]",–
O=C(c1ccc(Cl)cc1)N1CCN(C(=O)c2nnn3c2COC(c2ccccc2)C3)CC1 (stereo not given),"inconclusive: 21.1 µM [inhibitor, single point]",–
COC(=O)c1cccc(Nc2nc(-c3ccncc3)nc3ccccc23)c1,"inconclusive: 16.8 µM [inhibitor, single point]",–
CCOC(=O)C1CCN(Cc2cc(Cl)c3ccccc3c2O)CC1,active: 1.88 µM,–
COc1cccc(CN2CCc3c(cc(C(=O)Nc4ccc(C)cc4C)n3C)C2)c1,"inconclusive: 21.1 µM [inhibitor, single point]",–
CCn1c(=O)c2cc(C(=O)N(CCN(C)C)Cc3ccccc3)sc2c2ccccc21,"inconclusive: 9.44 µM [inhibitor, partial curve, poor fit]",–
CCOC(=O)c1cnc2ccc(OC)cc2c1NCCc1ccc(OC)c(OC)c1,"inconclusive: 21.1 µM [inhibitor, single point]",–
CCSc1ccc(-c2nn(-c3ccccc3)cc2/C=C(/C#N)C(=O)NCCCOC)cc1,"inconclusive: 8.41 µM [inhibitor, partial curve, poor fit]",–
COc1ccc(-c2noc(-c3cccn3CC(=O)Nc3cccc(F)c3)n2)cc1F,"inconclusive: 6.68 µM [inhibitor, full curve, poor fit]",–
CCOc1ccc2[nH]c3c(NCCN(CC)CC)ncnc3c2c1,"inconclusive: 18.8 µM [inhibitor, single point]",–
COCCN1CC(CO)C2(CCN(Cc3ccc(F)c(Cl)c3)CC2)C1 (stereo not given),"inconclusive: 15 µM [inhibitor, single point]",–
COCCNC(=O)c1nc(-c2ccc([S+](C)(=O)[O-])cc2)c2ccccn12,–,inactive: -0.0535%
CCOC(=O)N1CCC(NC(=O)c2ccc3c(c2)N(Cc2ccccc2)C(=O)c2ccccc2S3=O)CC1 (stereo not given),"inconclusive: 13.3 µM [inhibitor, partial curve]",–
CN1CCOc2c(C(=O)NCc3cccnc3)cc(-c3cccc4[nH]ccc34)cc21,active: 8.63 µM,–
COc1cc(F)ccc1CN1CCCC2(Cc3ccccc3CNC2=O)C1 (stereo not given),"inconclusive: 2.66 µM [inhibitor, full curve, poor fit]",–
COc1ccc(Cl)cc1S(=O)(=O)N1CCC2(CCCNC2)C1 (stereo not given),"inconclusive: 23.7 µM [inhibitor, single point]",–
C[N+](C)(C)CCN(Cc1ccc(Cl)cc1)c1ccccn1,"inconclusive: 9.44 µM [inhibitor, partial curve]",–

Compound,Potency,"activity change, negative = inhibition"
CCn1c(C)cc(C=C2C(=O)c3ccccc3C2=O)c1C,"inconclusive: 18.8 µM [inhibitor, single point]",–
CN1CCN(c2nc(-c3cccnc3)nc3ccccc23)CC1,"inconclusive: 15 µM [inhibitor, single point]",–
CC(C)CN(CCNC(=O)c1cc(-c2ccc(Cl)s2)nc2ccccc12)CC(C)C,active: 7.5 µM,–
O=C(CCC1CCN(Cc2cccc3c2OCO3)CC1)NCc1cccc(C(F)(F)F)c1,"inconclusive: 3.76 µM [inhibitor, partial curve]",–
CCOC(=O)c1cnc2ccc(OC)cc2c1Nc1ccc(N2CCN(C)CC2)cc1,active: 1.68 µM,–
Cc1c(CN2CCC(O)(c3ccccc3)[C@H](N3CCCC3)C2)cnn1C (stereo not given in full),"inconclusive: 21.1 µM [inhibitor, partial curve, poor fit]",–
COc1cccc(CNCCSc2nnnn2C)c1OCc1ccc(Cl)cc1,"inconclusive: 2.66 µM [inhibitor, full curve]",–
Cc1ccc(-c2cc(=O)c3cc(C)ccc3[nH]2)cc1,active: 10.6 µM,–
Fc1cc(F)cc(CNc2ncncc2-c2nc(-c3ccccc3)no2)c1,–,inactive: 0%
COc1ccc(C2Cn3nnc(-c4nc(-c5ccc(F)c(Br)c5)no4)c3CO2)cc1 (stereo not given),"inconclusive: 23.7 µM [inhibitor, partial curve, poor fit]",–
Cc1ccccc1Nc1nnc(SCc2cc(=O)n3ccsc3n2)s1,–,inactive: 4.3%
CCOC(=O)c1c(N)sc2c1CCN(Cc1ccccc1)C2,active: 5.31 µM,–
COc1ccc(-c2noc(-c3cccn3CC(=O)Nc3cc(C)ccc3C)n2)cc1F,–,inactive: -19.7%
Cn1c2ccc(F)cc2c2nnc(SCCN3CCCCC3)nc21,active: 15 µM,–
O=C(CCc1nc(C2CCCN2Cc2ccc3[nH]ccc3c2)no1)N1CCCC1 (stereo not given),"inconclusive: 15 µM [inhibitor, single point]",–
CCc1cc2c(Sc3nc4ccccc4s3)ncnc2s1,active: 1.5 µM,–
CSc1cccc(NC(=O)Cn2c(-c3ccc(F)cc3)nc(C)c(CCO)c2=O)c1,active: 13.3 µM,–
COc1ccc(C(=O)N2CCC(n3cc(-c4nc(-c5ccccc5)no4)nn3)CC2)cc1,"inconclusive: 15 µM [inhibitor, single point]",–
O=C(c1ccc2c(c1)CC(=O)N2Cc1ccccc1)N1CCN(C2CCCCC2)CC1,"inconclusive: 21.1 µM [inhibitor, single point]",–
Cc1ccc(S(=O)Cc2nc(-c3ccc(C(=O)NC(C)c4ccccc4)cc3)oc2C)cc1 (stereo not given),"inconclusive: 13.3 µM [inhibitor, single point]",–
COc1cccc(S(=O)(=O)N2CCC3(CC2)CC(N(C)Cc2ccccc2)CCO3)c1 (stereo not given),"inconclusive: 8.41 µM [inhibitor, partial curve]",–
COc1ccc(CC(=O)OCC(=O)c2c[nH]c3ccccc23)cc1,"inconclusive: 18.8 µM [inhibitor, single point]",–

Compound,Potency,"activity change, negative = inhibition"
CCC(C)NC(=O)c1cc2cc3ccc(OC)cc3nc2o1 (stereo not given),"inconclusive: 10.6 µM [inhibitor, partial curve, poor fit]",–
O=C(O)c1ccc(-c2nc3ccncc3[nH]2)cc1,"inconclusive: 4.85 µM [inhibitor, full curve, poor fit] and inconclusive: 6.11 µM [inhibitor, full curve, poor fit]",–
COc1ccc(-c2cc3nc4c(c(=O)n3[nH]2)CN(C(=O)c2sccc2C)CC4)cc1,"inconclusive: 15 µM [inhibitor, single point]",–
CN(Cc1cc(-c2cccnc2)no1)C(=O)C1COc2ccccc2C1 (stereo not given),–,inactive: 23.1%
CCOc1ccc(NC(=O)CSc2nncc(=O)[nH]2)cc1,"inconclusive: 6.68 µM [inhibitor, partial curve, poor fit]",–
Cc1cccc(Nc2nc(-c3ccc(O)c(O)c3)cs2)n1,"inconclusive: 13.3 µM [inhibitor, single point]",–
COc1cccc(/C=N/Nc2cc(N3CCOCC3)ncn2)c1O,"inconclusive: 13.3 µM [inhibitor, single point]",–
Oc1ccccc1Nc1nc(NCc2ccccc2)c2ccccc2n1,"inconclusive: 2.37 µM [inhibitor, partial curve, poor fit]",–
Cc1ncsc1CN1CC(Oc2cccc(C(=O)N3CCOCC3)c2)C1,"inconclusive: 16.8 µM [inhibitor, single point]",–
O=C(CNC1=NCCC1)c1ccc2c(c1)OCCO2,–,inactive: 19.9%
NNC(=O)CN1C(=O)Nc2ccc(Cl)cc2C1c1ccccc1 (stereo not given),–,inactive: 35.4%
CCc1ccc2oc(-c3cccc(NC(=O)c4ccc(-c5cccc([N+](=O)[O-])c5)o4)c3)nc2c1,"inconclusive: 21.1 µM [inhibitor, single point]",–
Cc1cc(Nc2cccc(F)c2)nc(NCc2ccccc2)n1,active: 8.41 µM,–
CCc1ccc(CN2CCC(Oc3ccc(C(=O)NCCOC)cc3Cl)CC2)o1,"inconclusive: 21.1 µM [inhibitor, single point]",–
Cc1ccc(C(=O)N2CCC3(CC2)CC(N(Cc2ccccc2)C2CC2)CCO3)s1 (stereo not given),"inconclusive: 21.1 µM [inhibitor, single point]",–
CCCCN(CCCC)CC(O)Cn1cc(/C=C/C(=O)c2ccccc2)c2ccccc21 (stereo not given),active: 1.68 µM,–
Cc1ccc(NC(=O)c2oc3ccc(S(=O)(=O)N(C)C4CCCCC4)cc3c2C)cc1Cl,"inconclusive: 21.1 µM [inhibitor, single point]",–
COc1ccc(CCNc2nc(-c3ccccn3)cs2)cc1OC,"inconclusive: 8.41 µM [inhibitor, partial curve, poor fit]",–
CC1CC(C)CN(Cc2nc(N)nc(Nc3ccccc3)n2)C1 (stereo not given),"inconclusive: 10.6 µM [inhibitor, single point]",–
COc1cc(C)ccc1OCCSc1nc2ccc(NC(=O)c3ccc(F)cc3)cc2s1,active: 10.6 µM,–
CCN(Cc1ccccc1)c1ncncc1-c1nc(-c2ccccc2)no1,"inconclusive: 21.1 µM [inhibitor, single point]",–
